# According to the supplement of paper PMC3334620:
# Over roughly 33,000 sequences, “E-score (-0.5 to 0.5)” has its median near -0.012; the highest 2% begin near 0.29. The list shows a part of the results.
# Target: T1, Ybr033w (UniProt P38073)
# T1 sequence: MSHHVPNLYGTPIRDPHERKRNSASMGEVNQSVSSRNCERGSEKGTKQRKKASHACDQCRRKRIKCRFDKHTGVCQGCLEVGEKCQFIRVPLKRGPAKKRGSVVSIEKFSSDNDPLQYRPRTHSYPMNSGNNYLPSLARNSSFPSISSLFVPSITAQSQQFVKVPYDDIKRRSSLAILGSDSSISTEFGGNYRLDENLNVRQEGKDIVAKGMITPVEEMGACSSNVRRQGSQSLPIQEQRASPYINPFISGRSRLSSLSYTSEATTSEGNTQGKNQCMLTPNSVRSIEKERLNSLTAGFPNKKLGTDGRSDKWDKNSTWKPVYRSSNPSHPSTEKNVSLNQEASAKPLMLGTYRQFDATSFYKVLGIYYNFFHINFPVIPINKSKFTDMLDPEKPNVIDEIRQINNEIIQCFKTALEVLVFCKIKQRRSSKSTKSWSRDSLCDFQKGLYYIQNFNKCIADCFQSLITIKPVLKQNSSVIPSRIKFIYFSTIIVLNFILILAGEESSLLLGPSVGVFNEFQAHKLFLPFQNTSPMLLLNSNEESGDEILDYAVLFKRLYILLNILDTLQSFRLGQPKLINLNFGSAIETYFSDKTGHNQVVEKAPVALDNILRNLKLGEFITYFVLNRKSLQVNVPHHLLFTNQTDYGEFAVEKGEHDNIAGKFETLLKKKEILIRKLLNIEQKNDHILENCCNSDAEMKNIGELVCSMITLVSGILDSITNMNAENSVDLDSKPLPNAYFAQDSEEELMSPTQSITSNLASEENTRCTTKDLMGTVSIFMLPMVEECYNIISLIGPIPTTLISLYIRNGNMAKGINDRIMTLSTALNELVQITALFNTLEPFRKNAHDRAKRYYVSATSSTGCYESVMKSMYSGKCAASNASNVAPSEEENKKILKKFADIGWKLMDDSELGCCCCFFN
# Experiment: PBM E-score (8-mer binding enrichment) (E-score (-0.5 to 0.5)); higher = stronger / more preferred TF binding; most listed sequences are background and not binding sites
# Details: protein concentration: 200 nM; construct: GST-full length
# Protocol: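 Universal 'all 10-mer' protein binding microarrays (Agilent AMADID 015681) probed with GST-tagged S. cerevisiae TFs (full-length or DBD) made by in vitro transcription/translation (PURExpress), about 100-200 nM. Bound TF was detected with fluorescent anti-GST. Each ungapped 8-mer (which stands for itself and its reverse complement) is scored by the PBM enrichment score (E-score), a modified Wilcoxon-Mann-Whitney statistic from -0.5 to +0.5, computed with the Universal PBM Analysis Suite. Scale: above 0.35 generally sequence-specific binding.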
row,Sequence,PBM E-score
1,ACAATTAA,0.302
2,CACCAACC,-0.105
3,ACAGTCAG,-0.0837
4,CAATCAGA,-0.0691
5,AGAAGCGA,0.0622
6,CACACTGG,-0.178
7,GAGCTAGC,0.043
8,AAGATGAG,-0.118
9,GATAGTGA,0.121
10,CCAAGGGG,-0.0712
11,CTCGCTAC,-0.0664
12,AAACCATA,0.125
13,GAGCCATA,-0.102
14,CCACGCGA,-0.116
15,AAGAGCAC,0.0266
16,AATAACGT,0.0686
17,ATAACAGG,0.00867
18,CGTTAACA,0.0218
19,CGGGAGTC,-0.238
20,AACACTTA,0.122
21,GCGAAAAC,0.0292
22,CATGGATA,-0.00626
23,GCCTCACA,-0.0218
24,CGAGTTGC,0.0346
25,ATCGACCG,-0.0751

row,Sequence,PBM E-score
1,CGAGAAGA,-0.103
2,CGAAATCA,0.191
3,AAGGCGAT,-0.0115
4,CTGGGCGA,-0.251
5,ATCGCGAA,0.0947
6,ACAAACGA,0.202
7,CCAGCCGG,-0.0863
8,TCAGTGGA,-0.188
9,TCAAAAAA,0.265
10,TGCACGAA,0.111
11,AGTGATAG,0.112
12,AAGTAACT,0.176
13,ACTGTTAT,0.157
14,ATCTGCAT,0.0612
15,CTCGGCTC,-0.118
16,CAGAAGTA,0.216
17,GCAGCCAA,0.0335
18,CATGGGGC,-0.344
19,ATGAGTGA,0.127
20,AGGTAAGC,-0.0417
21,TCAACCCA,0.0561
22,CATCATTC,-0.0159
23,TGTAGTAA,0.218
24,AATTGAAA,0.127
25,ATGTGAAG,0.221

row,Sequence,PBM E-score
1,GATAATCA,0.236
2,CACTGAGG,-0.192
3,ATTCTGAC,-0.0262
4,GCTCTAAC,-0.158
5,CCAGAATC,-0.0157
6,TCTCATCA,0.117
7,CTGTAGGC,-0.0845
8,GGCTCTGA,-0.0487
9,GTGGGGCA,-0.304
10,ATCACTTA,0.0662
11,ATTAATCG,0.166
12,CTACACTA,0.133
13,GGTGTAAA,0.0578
14,CTTACTTA,0.0259
15,CACGTTAC,-0.163
16,AACCAACC,-0.112
17,ACAGGTCG,-0.158
18,ATAGTTAC,0.179
19,AATTGTGG,-0.0479
20,GTCGTTCA,-0.126
21,CTACGGCA,-0.0788
22,GATTTAAC,0.114
23,CCGGCCAA,-0.222
24,CTGTGTTA,-0.00531
25,GGTTTCTA,0.136

row,Sequence,PBM E-score
1,ATTATCCA,0.341
2,CTACATAC,0.0802
3,CGGCGAGA,-0.206
4,ATGCCACC,-0.0873
5,ATTATAGC,0.0663
6,AATGCCAG,-0.0103
7,CCTGCATC,-0.11
8,ACGATACT,-0.0668
9,ATGCGTAG,-0.128
10,TATATGCA,0.0241
11,CGCCAGCA,-0.229
12,GTAGTAGA,0.0726
13,CAACAACA,0.168
14,GCTGGCGA,-0.195
15,CAGTGGAC,-0.154
16,CGGAGCAG,-0.197
17,ATGCCTCA,-0.195
18,AGTACGAA,0.175
19,TAGTCGAA,0.0465
20,AGATCGCA,0.0312
21,AACAGTCC,0.0135
22,GGCGGGCA,-0.237
23,ACGGACCT,-0.151
24,AGGAAGCG,-0.179
25,CCGCACCC,-0.181

row,Sequence,PBM E-score
1,CGCCGACC,-0.299
2,ACGCCCAG,-0.0654
3,CGAAGAGA,0.0929
4,AGGCATCA,-0.0852
5,TCAGATAA,0.204
6,AGAAAGCT,0.0617
7,CTGGATGA,0.0499
8,GGGACTGA,-0.33
9,CCGCTAGA,-0.228
10,AGAAGGTG,0.0838
11,GGGGTAAA,-0.0233
12,AGTAGGAG,-0.068
13,AATCTTTC,0.00719
14,AATCCGTA,0.0927
15,GCACCCTA,-0.0575
16,AATCACTG,0.092
17,GTATGAAC,0.127
18,ATACACTG,-0.117
19,GCTGGGAC,-0.3
20,ACACTCGG,0.0346
21,GACATACC,-0.082
22,CGCGAGCG,-0.249
23,ATGAGAAT,0.0749
24,ATATACCC,0.118
25,AGGTCTGG,-0.164

row,Sequence,PBM E-score
1,AAGACACT,0.192
2,AGTTCTTA,0.171
3,CGCACGAG,-0.182
4,CTATACAG,0.0247
5,CACTGCTC,0.0524
6,CGGTGCGC,-0.156
7,GGTTATAC,-0.0104
8,CACGTCTA,0.155
9,AAGTGCCA,-8e-05
10,GGATGCAA,-0.00236
11,CGAAAAAC,0.226
12,GTTGTGGA,0.0877
13,CCCGTCCC,-0.264
14,CAAGGCTC,-0.346
15,GTAACTGA,-0.102
16,CGAGCATA,0.0149
17,CAGTATGG,-0.0882
18,TCAACCGA,0.146
19,CATTACAA,0.19
20,AAACTGGA,0.0838
21,AAACATAT,0.287
22,CCACAGTC,-0.269
23,CAGCGTAA,0.0724
24,CGATCGTC,-0.157
25,AGAGACGA,-0.022

row,Sequence,PBM E-score
1,CCGTGAGC,-0.21
2,ACCGTTCC,0.0384
3,CACCAGTA,0.0586
4,GCAGTGGC,-0.138
5,ATAGGGGC,-0.276
6,GAACTGGC,0.0434
7,ACTACGCG,-0.0805
8,AGAAGAGC,-0.145
9,CCGAATCG,0.0587
10,AGACCACA,-0.134
11,AAACGTCG,-0.0262
12,AATTATGT,0.239
13,AATCGGTA,0.0669
14,AGTTGGAA,0.124
15,CATTCGCA,-0.00542
16,GAATGTGA,0.0401
17,TCACCTAA,0.0978
18,GAGAGCTC,-0.197
19,CTCCACTA,-0.0126
20,AATCGCGT,0.0913
21,AGATCCAG,-0.0318
22,ATCAGTTC,-0.0797
